These are literature values, as cited in US20080160019A1, “SEQUENTIAL COMBINATION THERAPY” (DYAX CORP., priority 2006, published 2008).

This series has as its target T1, Tie1 (Homo sapiens, UniProt P35590).
T1 sequence (P35590 22-1138): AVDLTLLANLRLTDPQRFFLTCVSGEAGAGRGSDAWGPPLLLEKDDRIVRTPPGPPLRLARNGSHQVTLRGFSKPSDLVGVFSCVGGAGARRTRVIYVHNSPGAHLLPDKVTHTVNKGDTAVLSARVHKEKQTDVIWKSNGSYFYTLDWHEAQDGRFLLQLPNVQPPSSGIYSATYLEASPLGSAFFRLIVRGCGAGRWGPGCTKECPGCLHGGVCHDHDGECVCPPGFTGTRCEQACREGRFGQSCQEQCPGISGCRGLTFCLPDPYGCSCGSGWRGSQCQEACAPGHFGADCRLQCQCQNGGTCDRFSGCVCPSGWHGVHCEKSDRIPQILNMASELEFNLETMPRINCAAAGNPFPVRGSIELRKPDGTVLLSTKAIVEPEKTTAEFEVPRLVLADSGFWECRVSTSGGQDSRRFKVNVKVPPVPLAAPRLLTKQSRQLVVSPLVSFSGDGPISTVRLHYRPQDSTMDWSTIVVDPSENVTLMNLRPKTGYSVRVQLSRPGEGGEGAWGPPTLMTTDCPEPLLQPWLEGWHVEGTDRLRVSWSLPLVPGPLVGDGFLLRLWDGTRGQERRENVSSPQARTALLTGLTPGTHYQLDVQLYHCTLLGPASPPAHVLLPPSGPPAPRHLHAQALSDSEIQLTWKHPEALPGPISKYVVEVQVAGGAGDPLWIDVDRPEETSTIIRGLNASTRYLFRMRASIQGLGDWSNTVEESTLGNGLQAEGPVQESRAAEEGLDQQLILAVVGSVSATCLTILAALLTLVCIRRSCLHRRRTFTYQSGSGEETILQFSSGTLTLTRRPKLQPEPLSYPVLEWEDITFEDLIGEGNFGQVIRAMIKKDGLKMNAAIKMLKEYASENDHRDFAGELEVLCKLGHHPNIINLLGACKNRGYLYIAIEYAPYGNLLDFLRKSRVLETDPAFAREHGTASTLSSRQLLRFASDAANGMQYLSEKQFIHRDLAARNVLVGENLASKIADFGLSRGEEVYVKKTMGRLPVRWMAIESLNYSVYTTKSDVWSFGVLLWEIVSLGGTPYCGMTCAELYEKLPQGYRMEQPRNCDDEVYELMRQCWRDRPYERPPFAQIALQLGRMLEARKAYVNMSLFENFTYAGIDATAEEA

B1: DX-2220: full length, IgG1, germlined human anti-Tie1 antibody E3b (SEQ ID NO:6, 7) (protein, listed as Homo sapiens)
light: DIQMTQSPSSLSASVGDRVTITCRASQGIGHYLAWYQQKPGKVPKLLIYTASTLQSGVPSRFSGSGSGTDFTLTISSLQPEDVATYYCQQFNSYPHTFGQGTRLEIKRTVAAPSVFIFPPSDEQLKSGTASVVCLLNNFYPREAKVQWKVDNALQSGNSQESVTEQDSKDSTYSLSSTLTLSKADYEKHKVYACEVTHQGLSSPVTKSFNRGEC
heavy: EVQLLESGGGLVQPGGSLRLSCAASGFTFSMYGMVWVRQAPGKGLEWVSVISPSGGNTGYADSVKGRFTISRDNSKNTLYLQMNSLRAEDTAVYYCARAPRGYSYGYYYWGQGTLVTVSS[left out - human IgG1 constant region]
B1: the Tie1 tyrosine phosphorylation entry is on record as “induce”, the Tie complex formation entry is “induce” and the “down modulation of Tie1 from the cell surface” value was “induce”. Besides, for the setting “e.g., endothelial cells”, the “Tie1/Tie2 heterodimers on the surface of cells expressing Tie1 and Tie2” value is “down-modulation”.
